# Measurements published in PubChem BioAssay AID1460 (National Center for Advancing Translational Sciences (NCATS), 2008).
# Among all 270,000 compounds or so, about 5,800 (2.1%) were called active. This list was built around the results that the source calls inconclusive (neither active nor inactive); the mix of calls is not that of the screen. Calls follow the shape of the dose curve; as a rule, active = well fitted inhibition curve with a large enough effect; inconclusive = small, poorly fitted or top-dose-only effect; inactive = flat fitted curve, though single readings scatter. Potencies beside an inconclusive call are fits to weak or partial responses and may not hold up.
# Molecular target: Microtubule-associated protein tau (Homo sapiens) (UniProt P10636)
# Assay: qHTS for Inhibitors of Tau Fibril Formation, Thioflavin T Binding; also: nearly all actives have a fitted effect of over 55% in size
# Conditions: recombinant tau K18 P301L (four-repeat tau fragment), heparin-induced fibrillization, ThT fluorescence; series mostly up to 57.4 µM; activity, negative = inhibition: at the top concentration
# Method in brief: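 K18 P301L tau (15 uM + 0.24 uM Alexa 594-tagged), heparin 20 uM, NaOAc pH 7, 6 h 37 C; ThT 30 uM, 1 h RT, ex 450/em 510 nm.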
# % is scaled to controls: 0 for no effect and ±100 for the full control effect; potency is read from the fitted curve at half-maximal effect; tags tell the direction and shape of the fitted curve.
# Chain of UniProt P10636 (P10636 whole entry, looked up): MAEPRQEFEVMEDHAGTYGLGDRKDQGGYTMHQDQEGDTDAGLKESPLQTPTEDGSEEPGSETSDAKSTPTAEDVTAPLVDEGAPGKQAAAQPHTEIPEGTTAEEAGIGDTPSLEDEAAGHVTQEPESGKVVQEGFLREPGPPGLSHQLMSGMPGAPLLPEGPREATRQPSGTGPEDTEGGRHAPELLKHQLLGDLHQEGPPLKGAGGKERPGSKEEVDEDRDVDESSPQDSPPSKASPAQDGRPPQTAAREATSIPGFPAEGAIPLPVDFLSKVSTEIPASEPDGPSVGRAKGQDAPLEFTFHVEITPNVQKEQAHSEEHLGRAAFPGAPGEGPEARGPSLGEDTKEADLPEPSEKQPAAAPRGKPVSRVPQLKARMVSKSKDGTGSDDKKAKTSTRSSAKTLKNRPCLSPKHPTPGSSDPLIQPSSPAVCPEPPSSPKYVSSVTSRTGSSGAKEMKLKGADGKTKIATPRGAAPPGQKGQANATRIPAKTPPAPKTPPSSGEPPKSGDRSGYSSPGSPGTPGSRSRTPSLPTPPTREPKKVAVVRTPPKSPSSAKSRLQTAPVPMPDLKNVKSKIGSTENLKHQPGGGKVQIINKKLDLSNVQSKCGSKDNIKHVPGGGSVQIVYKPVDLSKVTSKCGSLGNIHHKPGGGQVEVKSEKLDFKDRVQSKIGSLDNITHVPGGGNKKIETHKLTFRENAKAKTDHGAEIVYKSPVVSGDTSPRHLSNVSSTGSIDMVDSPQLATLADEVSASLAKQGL
SMILES,"activity, negative = inhibition",Potency
COc1ccc(-c2[nH]ncc2C(=O)NCc2cccc(Cl)c2)cc1,inactive: -5.49%,–
O=C(/C=C/c1cccc([N+](=O)[O-])c1)NCCN1C(=O)S/C(=C\c2cccnc2)C1=O,–,"inconclusive: 14.1 µM [inhibitor, partial curve]"
O=C(O)c1cc(N/N=C/c2ccc3c(c2)OCCO3)ccc1Cl,–,"inconclusive: 15.8 µM [inhibitor, partial curve]"
COc1ccc2c(c1)CCN=C2Cc1ccc(OC)c(OC)c1,inactive: -4.97%,–
CCN1CCN(c2ccc(S(=O)(=O)N3CCCC3)cn2)CC1,inactive: 10.1%,–
O=C1SCC(c2ccccc2)=NN1Cc1ccccc1,inactive: -7.14%,–
CC1=NN(c2nc(-c3ccc(F)cc3)cs2)C(=O)C1,–,"inconclusive: 15.8 µM [inhibitor, partial curve]"
O=C1CN(C(=O)c2ccc(S(=O)(=O)N3CCCCC3)cc2)C(c2ccc(F)cc2)c2cc(Cl)ccc2N1 (stereo not drawn),–,"inconclusive: 22.4 µM [inhibitor, single point]"
Cn1c(=O)n(C)c2cc([N+](=O)[O-])c(N3CCN(S(=O)(=O)c4ccc(C(C)(C)C)cc4)CC3)cc21,–,"inconclusive: 20 µM [inhibitor, single point]"
Nc1ccc(N2CCCCC2)c(S(=O)(=O)Nc2ccccc2Cl)c1,–,"inconclusive: 25.1 µM [inhibitor, partial curve, poor fit]"
CSc1ccc(CN(C)CC(=O)Nc2ccc(C)cc2Br)cc1,–,"inconclusive: 14.1 µM [inhibitor, single point]"
COc1cccc(C(=O)Nc2cccc(OCc3cc(=O)n4cc(C)ccc4n3)c2)c1,–,"inconclusive: 1.41 µM [inhibitor, partial curve]"
COc1ccc(-c2onc(C)c2C)cc1S(=O)(=O)NCc1ccco1,inactive: -5.35%,–
CC(C)=CCCC1(C)C=Cc2c(ccc3c2[nH]c2cc(O)c(C)cc23)O1 (stereo not drawn),–,"inconclusive: 22.4 µM [inhibitor, single point]"
CCCc1cc(-c2[nH]ncc2-c2ccc3c(c2)OCCCO3)c(O)cc1O,–,"inconclusive: 20 µM [inhibitor, partial curve]"
CCC(C)Oc1cccc(OCCCCN2C(=O)NC(C)(C)C2=O)c1 (stereo not drawn),inactive: -4.51%,–
CCOc1ccc(C(=O)/C=C/c2ccc(SC)cc2)cc1,–,"inconclusive: 8.91 µM [inhibitor, partial curve]"
COc1ccc(/C=C2\CC/C(=C\c3ccc(OC)c(OC)c3)C2=O)cc1OC,–,"inconclusive: 3.16 µM [inhibitor, full curve]"
Cc1ccc(O)c(CP(=O)(c2ccccc2)c2ccccc2)c1,inactive: -6.81%,–
COc1ccc(/C(O)=C2/C(=O)C(=O)N(CCN(C)C)C2c2ccccc2)cc1Cl (stereo not drawn),inactive: 1.88%,–
CCCCc1nn2c(=O)cc(COC(=O)c3cccc(OC)c3)nc2s1,–,"inconclusive: 0.501 µM [inhibitor, full curve]"
CCCCCCCCOC(=O)c1c(CSC(=N)N)n(C)c2cc(Br)c(OC(C)=O)cc12,–,"inconclusive: 39.8 µM [inhibitor, single point]"

SMILES,"activity, negative = inhibition",Potency
COc1ccc(C2/C=C\CN(C(=O)C3CCCC3)[C@H](Cc3ccccc3)C(=O)N2Cc2ccc(F)cc2)cc1 (stereo partly drawn),inactive: 2.37%,–
CN1CC(c2ccccc2Cl)C2(COc3ccccc3C2=O)C12C(=O)Nc1ccccc12 (stereo not drawn),inactive: 3.68%,–
CC(C)CN1C(=O)/C(=C/c2cccs2)NC1=S,–,"inconclusive: 22.4 µM [inhibitor, partial curve]"
Nc1nc(Nc2ccc(Cl)cc2)nc(NCc2ccco2)c1[N+](=O)[O-],–,"inconclusive: 0.501 µM [inhibitor, full curve]"
CC1CCN(c2ccc([N+](=O)[O-])c(SCCO)c2)CC1,–,"inconclusive: 15.8 µM [inhibitor, partial curve]"
O=S(=O)(c1ccc(N2CCC(c3ccc(Cl)cc3)=N2)cc1)N(CCO)CCO,–,"inconclusive: 28.2 µM [inhibitor, partial curve]"
c1ccc(-c2nccc(-c3ccc(-n4cnc5ccccc54)cc3)n2)cc1,–,"inconclusive: 11.2 µM [inhibitor, partial curve, poor fit]"
CCC(=O)N1CCc2cc(S(=O)(=O)NC(CC(C)C)C(=O)Nc3cc(C)ccc3OC)ccc21 (stereo not drawn),inactive: -10.3%,–
O=C(Nc1ccc(F)cc1Cl)n1ncc2cc(Cl)ccc21,–,"inconclusive: 39.8 µM [inhibitor, single point]"
CC(=O)c1c(C)[nH]c(C(=O)Nc2nc(-c3ccc(-c4ccccc4)cc3)cs2)c1C,inactive: 1.69%,–
CCn1nc(C)cc1C(=O)Sc1ccc(Cl)cc1Cl,–,"inconclusive: 35.5 µM [inhibitor, single point]"
O=C(CC1C(=O)NCCN1Cc1ccc(F)cc1)NCCN1CCCc2ccccc21 (stereo not drawn),–,"inconclusive: 28.2 µM [inhibitor, partial curve]"
CC1=C(C(=O)Nc2ccc(C)cc2C)C(c2ccc(O)cc2)n2nnnc2N1 (stereo not drawn),inactive: -6.23%,–
CCOc1ccccc1NC1=NCC(=O)N1Cc1ccc(F)cc1,–,"inconclusive: 35.5 µM [inhibitor, single point]"
O=C(c1ccco1)N1CCN(c2ncnc3c2[nH]c2ccc(Br)cc23)CC1,–,"inconclusive: 3.55 µM [inhibitor, full curve]"
CCn1c(COc2ccc(Cl)cc2)nnc1SC1CCc2ccccc2C1=O (stereo not drawn),–,"inconclusive: 25.1 µM [inhibitor, partial curve]"
CCN(CC)S(=O)(=O)c1ccc(C(=O)/C=C/c2ccc(-c3ccc([N+](=O)[O-])cc3)o2)cc1,–,"inconclusive: 3.55 µM [inhibitor, full curve]"
CC1CCN(c2ncnc3c2cnn3-c2ccccc2)CC1,–,"inconclusive: 22.4 µM [inhibitor, partial curve, poor fit]"
O=[N+]([O-])c1cc(/C=N/N2CCCCC2)ccc1Cl,–,"inconclusive: 12.6 µM [inhibitor, partial curve]"
COc1cc(C(=O)n2nc(-c3ccco3)nc2NCc2ccc(Cl)cc2)cc(OC)c1OC,inactive: -15.8%,–
CCCN(CC(=O)c1cc(C)n(C)c1C)S(=O)(=O)c1cccc(C(F)(F)F)c1,–,"inconclusive: 15.8 µM [inhibitor, partial curve]"
